Measured values taken from a collection of fitness landscapes (doi:10.1016/j.celrep.2020.107928).
Whole data set: some 81,000 sequences, median “one-hybrid fitness for binding parS DNA” near -0.17, cut for the highest 2% near 0.51. The list shows a part of the results.

B1: Caulobacter ParB omega fusion; a variant is named by its letters at X, in order, B8GW30 (parent)
chain: MESVVVGEPGMSEGRRGLGRGLSALLGEVDAAPAQAPGEQLGGSREAPIEILQRNPDQPRRTFREEDLEDLSNSIREKGVLQPILVRPSPDTAGEYQIVAGERAWRAAQRAGLKTVPIMVRELDDLAVLEIGIIENVQRADLNVLEEALSYKVLMEKFERTQENIAQTIGKSXSHVANXMRLLXLPDEVQSYLVSGELTAXHARAIAAAADPVALAKQIIEGGLSVRETEALARKAPNLSAGKSKGGRPPRVKDTDTQALESDLSSVLGLDVSIDHRGSTGTLTITYATLEQLDDLCNRLTRGI

Variants of: B1
Experiment: one-hybrid fitness for binding parS DNA (scaled: cognate 1, non-cognate 0); higher = stronger binding
Settings: with parS DNA site
Outline: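 Values were rescaled so that cognate is 1 and non-cognate is 0. Each is a fitness, the log change in a variant's read ratio to wild type from Illumina reads of plasmids before and after selection, with three replicate libraries pooled and variants under 10 reads dropped. Selection of the Caulobacter ParB libraries, four specificity codons randomised, used E. coli USO with a HIS3 reporter, site 19 bp from the promoter, on M9-minus-histidine with 0.1 mM IPTG and 5 mM 3-AT for 48 hours at 37°C.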

one-hybrid fitness for binding parS DNA, 0.558:
RSFA

one-hybrid fitness for binding parS DNA, ≤ 0.2:
ESCV
ESES
SYQA
YFSG
GNCN
PKSY
IEPT
IHKP
SKIT
WLWC
RGSM
PSIG
YQGM
QLNW
QRSM
QHIN
LRLY
YSGR
HPDM
FLMC
PSAI
PITN
NKPL
VAYT
IPKL
LGYT
RPYF
RRSP
QKLV
LEGL
EVMG
TDKR
IRHR
RMSR
VFLK
HPTY
SWHC
THSN
TIPF
RIMQ
AHRW
QYAM
QPLM
GYYS
HTLA
YNHF
SSAF
MNYL
LPYK
LHYC
QYPV
PRTK
DCRK
MYTN
QSPS
HVRA
KKAE
IAYR
TMKF
MYHE
HVMV
GLSN
WRPV
HRDR
QMLP
SSNH
DVMY
GCAG
VKDF
LHRH
QRWA
PSYI
DTTT
TFVS
NVSK
LWVC
MEWG
VPQA
LFSR
QTTW

one-hybrid fitness for binding parS DNA, 0.441:
RRQY

one-hybrid fitness for binding parS DNA, 0.592:
RSHA

one-hybrid fitness for binding parS DNA, 0.269:
RMHF
